Consider 54 molecules from ChEMBL document CHEMBL4888484, “Replenishing the malaria drug discovery pipeline: Screening and hit evaluation of the MMV Hit Generation Library 1 (HGL1) against asexual blood stage Plasmodium falciparum ,using a nano luciferase reporter read-out” (2022).

Hit rate of the full screen: of about 150,000 compounds, about 540 (0.36%) showed an effect of 50% or more. The list shows a part of the results.

In this assay the test system is Plasmodium falciparum. Nature of the assay: Primary screen in NF54 nanoGlo assay, in single point, at 2uM, 72h; a lower Z score goes with more inhibition. Type of assay: functional, Erythrocyte. The following applies: timepoint 72 hour.
Broadly, the % Inhibition is the change of the read-out against control, counted positive when it falls. Take `CC[C@@H](Cc1ccc(C)cc1)NC(C)=O`: the “% Inhibition” value amounted to 1% and the Z score is -0.3.

With `CCn1nc(C)cc1C(=O)N1C[C@@H]2OC(=O)N(CCCN3CCOCC3)[C@@H]2C1`, the “% Inhibition” value is -15% and the Z score came to 1.39.

Regarding `CCN1CCC[C@H](c2c(-c3ccccc3)ncn2Cc2c(C)n[nH]c2C)C1`, the “% Inhibition” value is -11% and the Z score is recorded as 1.29.

As to `CC(C)(CNCc1cn(CCC#N)nc1-c1ccccc1)N1CCOCC1`, the “% Inhibition” value is listed as 4% and the Z score is -0.84.

Take `Cc1ccc(N2C(=O)c3cc(-c4cccs4)nn3C[C@@]2(C)C(=O)NC2CCCCCCC2)cc1`: the “% Inhibition” value is on record as -11% and the Z score was found to be 2.13.

With `Cc1ccc(N2N=NC3C(=O)N(c4cc(C)cc(C)c4)C(=O)C32)cc1` (stereo not drawn), the “% Inhibition” value is on record as -12% and the Z score is 1.33.

On to `COCc1nc2n(n1)[C@@H](c1ccc(O)cc1)C[C@@H](C)N2`, for which the “% Inhibition” value was -11% and the Z score was found to be 1.46.

Take `O=C(Nc1ccnn1C1CCCC1)c1cncc(Br)c1`: the “% Inhibition” value was -3% and the Z score is reported as 0.53.

Regarding `CCOC(=O)C1=C(C(=O)OCC)SC(=C2C(=S)C(C)(C)N(C(=O)CC)c3cc(OCC)ccc32)S1`, the “% Inhibition” value is listed as -4% and the Z score is 0.46.

For `C(#Cc1cccc(-c2nc(-c3ccccc3)c(-c3ccccc3)[nH]2)c1)c1ccccc1`, the “% Inhibition” value was 0% and the Z score is recorded as -0.04.

For `COc1ccc(N2C[C@@H](C(=O)N3CC(Oc4nccs4)C3)CC2=O)cc1`, the “% Inhibition” value is recorded as -16% and the Z score was 2.7.

Take `COCCN1C(=O)CC[C@@H](C(=O)NCCC(C)C)[C@H]1c1ccc(C)cc1`: the “% Inhibition” value is on record as -2% and the Z score turned out to be 0.28.

In the case of `CCC(NC(=O)C1Cc2ccccc21)(C(=O)O)c1ccccc1` (stereo not drawn), the “% Inhibition” value is -9% and the Z score was determined as 1.71.

On to `CN1CCC(O)(c2nc(-c3cccc4c3ccn4C)nn2CCO)CC1`, for which the “% Inhibition” value is listed as -5% and the Z score is recorded as 0.68.

`CC(C)(C)c1coc(CN2CCC(c3c[nH]cn3)CC2)n1`: the “% Inhibition” value is given as -12% and the Z score is reported as 2.27.

With `COc1cccc(CN2CCc3c(cc(C(=O)N4CCCN(C)CC4)n3C)C2)c1`, the “% Inhibition” value came to 9% and the Z score is -1.06.

In the case of `C=C1C(C(=O)Nc2ccccc2F)C1C(=O)Nc1ccccc1F` (stereo not drawn), the “% Inhibition” value was 0% and the Z score is -0.05.

`COc1ccccc1CC(=O)Nc1cnn(-c2ncc(N3CCCC3)cn2)c1`: the “% Inhibition” value was -10% and the Z score stood at 1.59.

In the case of `C[C@](O)(CNS(=O)(=O)CC1CCCC1)C1CC1`, the “% Inhibition” value is listed as -2% and the Z score was found to be 0.2.

As for `Cc1cc(C)n(CCN(C)Cc2nnc(C)s2)n1`, the “% Inhibition” value is listed as -17% and the Z score is 1.6.

In the case of `CCN1C(=O)Cc2cc(NC(=O)Cc3ccc(OC)cc3)ccc21`, the “% Inhibition” value is -12% and the Z score was found to be 1.4.

`CCc1nc(CN2CCN(S(=O)(=O)c3ccccc3)CC2)no1`: the “% Inhibition” value was -15% and the Z score amounted to 2.66.

With `Cc1noc(C)c1C(=O)NC[C@H]1CCCN(c2nnnn2-c2ccccc2)C1`, the “% Inhibition” value is on record as -10% and the Z score was determined as 1.02.

As to `Cc1c(F)cccc1NC(=O)N1CC(Cc2nncn2C(C)C)C1`, the “% Inhibition” value was -7% and the Z score came to 1.23.

Regarding `CC1CN(CC(O)COC2CCCCC2)CC(C)O1` (stereo not drawn), the “% Inhibition” value is listed as -14% and the Z score came to 1.3.

For `COC(=O)[C@@H](C)CN(C)c1nc(C2CC2)no1`, the “% Inhibition” value is on record as 5% and the Z score is reported as -0.76.

`CC(=O)NC1CCN(C(=O)N(c2ccccc2)c2ccccc2)CC1`: the “% Inhibition” value is on record as -2% and the Z score was 0.17.

Consider `Cc1oc(-c2ccccc2)nc1CN1C(=O)N[C@](C)(c2cc(F)ccc2F)C1=O`, for which the “% Inhibition” value was determined as 1% and the Z score is recorded as -0.19.

Consider `COCCn1c(CO)nnc1[C@H]1C[C@@H](NC(=O)c2ccn(C)c2C)C1`, for which the “% Inhibition” value is listed as -8% and the Z score amounted to 1.29.

As to `CC1=C(C(=O)N2C3CCC2CC(=O)NC3)CCC1` (stereo not drawn), the “% Inhibition” value is -2% and the Z score came out at 0.31.

As for `CCS(=O)(=O)N1CCC(N2C[C@H](OCCOC)C23CCCCC3)CC1`, the “% Inhibition” value is given as -3% and the Z score is given as 0.57.

As for `COC(=O)N1CC[C@H](Nc2ncccc2C#N)C1`, the “% Inhibition” value was -5% and the Z score is 0.76.

As to `Cc1cc(C)c(CNC(=O)c2c[nH]nc2-c2ccccc2)c(=O)[nH]1`, the “% Inhibition” value is -8% and the Z score turned out to be 0.7.

For `Cc1noc([C@H](C)NC(=O)c2cccnc2O)n1`, the “% Inhibition” value is 29% and the Z score is given as -3.26.

`COc1nccnc1N[C@@H](CN1CCCC1)C(C)(C)C`: the “% Inhibition” value is on record as -5% and the Z score was found to be 0.88.

With `COC(=O)c1ccc(CN(CCNC(=O)C(C)C)C(=O)C(C)C)cc1`, the “% Inhibition” value was -2% and the Z score is recorded as 0.26.

Take `Cc1ccc(S(=O)(=O)N2CC[C@H](OCC3CC3)C2)cc1Cl`: the “% Inhibition” value was -9% and the Z score stood at 1.38.

As for `O=C(Cc1nnc(-c2ccncc2)o1)NCc1ccccc1C(F)(F)F`, the “% Inhibition” value is recorded as -13% and the Z score came out at 1.32.

Turning to `O=C(CC[C@H]1CCCO1)Nc1cnc2[nH]ncc2c1`, the “% Inhibition” value is recorded as -10% and the Z score is reported as 1.84.

Consider `N#Cc1sccc1-c1ccccc1CN1CCOCC1`, for which the “% Inhibition” value was -4% and the Z score amounted to 0.72.

For `O=S(=O)(CCCc1cn[nH]c1)Cc1cccc2ccccc12`, the “% Inhibition” value is recorded as -4% and the Z score is listed as 0.39.

As for `c1cnn(-c2cncc(NCCCN3CCOCC3)n2)c1`, the “% Inhibition” value is -4% and the Z score was found to be 0.44.

Regarding `COc1cccc(-c2nc3ccc(-c4ccc(Cl)cc4C)cn3c2CCC(=O)NCc2ccccc2)c1`, the “% Inhibition” value came to 7% and the Z score is given as -0.86.

Turning to `Cc1ccc([C@@H]2Cn3nnc(C(=O)N4CCC(C(=O)NCCN5CCCC5)CC4)c3CO2)cc1`, the “% Inhibition” value is on record as -20% and the Z score was determined as 1.82.

For the molecule `CCc1ncc(S(=O)(=O)N2CCCc3ncccc32)s1`, the “% Inhibition” value is listed as 18% and the Z score is -2.26.

As to `Cc1cnc(CCN2C(=O)[C@H](Cc3ccccc3)N(C)C2=O)s1`, the “% Inhibition” value is recorded as -7% and the Z score is on record as 0.73.

Consider `COc1cc(OC)cc(C2CCN(C(C(N)=O)c3ccccc3)C2)c1` (stereo not drawn), for which the “% Inhibition” value was found to be 4% and the Z score was -0.51.

For the molecule `CC(C)(C)c1nnnn1CN1CCN(c2ncccn2)CC1`, the “% Inhibition” value was -6% and the Z score is 0.83.

In the case of `O=C(Cc1ccc(-c2ccccc2)cc1)NC1CCNCC1F` (stereo not drawn), the “% Inhibition” value is 0% and the Z score was 0.01.

Turning to `Cn1nc(C2CC2)cc1N1CCN(C(=O)NCc2cccs2)CC1`, the “% Inhibition” value was 13% and the Z score was -1.75.

With `Cc1cc(NC(=O)Nc2cnn(C)c2)cnc1N1CCCC[C@@H]1C`, the “% Inhibition” value amounted to 2% and the Z score is listed as -0.2.

`COC(C)[C@H](C)NC(=O)c1cnn2c(-c3cccnc3)ccnc12` (stereo partly drawn): the “% Inhibition” value is -9% and the Z score is reported as 1.4.

With `Cn1cnn(CCOc2ccc(Cl)cc2)c1=O`, the “% Inhibition” value is reported as -1% and the Z score came out at 0.25.

Regarding `COc1cccc(C(=O)N2CCC3(CC2)N[C@@H](CC(C)C)C(=O)N3Cc2cccc(C(F)(F)F)c2)c1`, the “% Inhibition” value is -10% and the Z score was 1.84.
